Reference: PubChem BioAssay AID504333 (National Center for Advancing Translational Sciences (NCATS), 2011)
“And” between values parts separate entries of the source, which are not always exact repeats. Identical values can stand only once. In all, about 360,000 compounds went through this assay and about 16,000 (4.4%) were called active. Inconclusive results, whose numbers are uncertain, are shown with a selection of clear calls. The call rests on the fitted dose curve; in most records, active means well fitted inhibition curve with a large enough effect; inconclusive means small, poorly fitted or top-dose-only effect; inactive means no such curve, though single readings can be large or run the other way. Potencies beside an inconclusive call are fits to weak or partial responses and may not hold up.

target: Bromodomain adjacent to zinc finger domain protein 2B (Homo sapiens) (UniProt Q9UIF8); assay: qHTS Assay for Inhibitors of BAZ2B; conditions: AlphaScreen BAZ2B-H3K14Ac peptide displacement; series mostly up to 114 µM; further: nearly all actives have a fitted effect of over 60% in size
Sequence of UniProt Q9UIF8 (Q9UIF8 whole entry, looked up, the tested form may be a part): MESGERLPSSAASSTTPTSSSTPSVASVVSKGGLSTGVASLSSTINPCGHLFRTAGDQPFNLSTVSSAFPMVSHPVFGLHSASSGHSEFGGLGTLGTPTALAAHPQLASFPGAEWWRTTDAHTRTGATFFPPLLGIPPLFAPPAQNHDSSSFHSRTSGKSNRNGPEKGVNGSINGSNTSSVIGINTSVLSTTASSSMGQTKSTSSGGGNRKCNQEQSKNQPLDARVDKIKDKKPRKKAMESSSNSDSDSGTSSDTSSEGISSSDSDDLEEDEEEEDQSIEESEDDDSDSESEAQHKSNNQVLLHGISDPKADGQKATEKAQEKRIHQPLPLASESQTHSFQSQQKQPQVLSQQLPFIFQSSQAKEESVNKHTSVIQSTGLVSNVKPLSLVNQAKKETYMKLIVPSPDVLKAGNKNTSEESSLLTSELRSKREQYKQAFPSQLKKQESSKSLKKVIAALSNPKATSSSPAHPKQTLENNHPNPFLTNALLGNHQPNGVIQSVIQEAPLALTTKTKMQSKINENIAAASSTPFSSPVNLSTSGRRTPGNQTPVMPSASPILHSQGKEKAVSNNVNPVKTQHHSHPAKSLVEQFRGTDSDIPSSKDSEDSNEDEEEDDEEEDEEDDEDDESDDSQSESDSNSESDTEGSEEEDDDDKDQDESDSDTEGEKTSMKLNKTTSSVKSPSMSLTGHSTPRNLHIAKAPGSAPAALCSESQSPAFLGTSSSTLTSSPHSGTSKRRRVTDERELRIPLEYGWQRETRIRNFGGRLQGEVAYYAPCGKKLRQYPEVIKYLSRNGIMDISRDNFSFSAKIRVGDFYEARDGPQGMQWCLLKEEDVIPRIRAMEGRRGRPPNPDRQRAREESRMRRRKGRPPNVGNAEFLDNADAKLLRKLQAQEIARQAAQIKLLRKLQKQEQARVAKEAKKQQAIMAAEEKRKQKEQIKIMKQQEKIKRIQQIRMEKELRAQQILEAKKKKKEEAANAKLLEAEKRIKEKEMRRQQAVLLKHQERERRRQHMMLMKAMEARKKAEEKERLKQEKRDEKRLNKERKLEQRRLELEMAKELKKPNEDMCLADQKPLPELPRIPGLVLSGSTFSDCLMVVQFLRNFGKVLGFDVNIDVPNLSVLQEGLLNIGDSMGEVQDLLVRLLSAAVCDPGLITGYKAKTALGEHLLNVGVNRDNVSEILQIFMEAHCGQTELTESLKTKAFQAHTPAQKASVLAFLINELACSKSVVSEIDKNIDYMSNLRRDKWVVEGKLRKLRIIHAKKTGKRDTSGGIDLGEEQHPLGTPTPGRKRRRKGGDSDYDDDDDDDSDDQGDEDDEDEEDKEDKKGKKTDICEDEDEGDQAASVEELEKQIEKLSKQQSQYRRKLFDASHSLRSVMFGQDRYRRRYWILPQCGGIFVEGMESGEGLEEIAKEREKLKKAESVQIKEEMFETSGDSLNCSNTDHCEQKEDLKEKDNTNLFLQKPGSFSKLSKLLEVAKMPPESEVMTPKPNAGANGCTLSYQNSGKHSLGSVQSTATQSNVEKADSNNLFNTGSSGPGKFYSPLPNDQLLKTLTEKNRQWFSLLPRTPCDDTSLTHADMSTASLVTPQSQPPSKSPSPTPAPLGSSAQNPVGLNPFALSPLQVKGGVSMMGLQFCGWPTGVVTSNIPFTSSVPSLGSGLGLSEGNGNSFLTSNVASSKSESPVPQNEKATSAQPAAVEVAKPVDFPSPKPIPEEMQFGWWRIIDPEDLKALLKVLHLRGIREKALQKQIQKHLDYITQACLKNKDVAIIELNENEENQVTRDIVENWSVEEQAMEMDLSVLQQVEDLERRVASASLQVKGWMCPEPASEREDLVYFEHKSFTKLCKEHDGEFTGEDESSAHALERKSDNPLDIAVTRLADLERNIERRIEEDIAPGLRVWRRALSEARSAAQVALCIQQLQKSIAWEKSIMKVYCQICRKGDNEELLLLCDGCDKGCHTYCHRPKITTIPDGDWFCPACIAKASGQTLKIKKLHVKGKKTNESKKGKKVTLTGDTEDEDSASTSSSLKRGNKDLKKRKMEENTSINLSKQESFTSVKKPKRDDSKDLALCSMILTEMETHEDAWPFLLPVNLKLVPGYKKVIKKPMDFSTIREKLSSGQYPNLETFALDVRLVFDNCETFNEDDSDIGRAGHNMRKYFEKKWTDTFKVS
Procedure, shortened: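 Multi-concentration screen (max 110 uM) measuring displacement of acetylated histone H3 peptide from BAZ2B by AlphaScreen, using 50 nM protein, 50 nM peptide and 10 ug/mL streptavidin donor plus Ni-chelate acceptor beads.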
Potency means the concentration at half of the fitted maximal effect; tags describe the fitted curve by direction and shape.

Structure (SMILES)	Potency
CC(C)Cc1nnc(NS(=O)(=O)c2ccc([N+](=O)[O-])cc2)s1	inconclusive: 89.1 µM [inhibitor, single point]
CCOc1ccc(C(=O)Nc2cccc(NC(=O)c3ccc(Cl)cc3Cl)c2)cc1	inconclusive: 89.1 µM [inhibitor, single point]
CCOc1ccccc1NC1=C(Cl)C(=O)N(Cc2ccccc2)C1=O	inconclusive: 39.8 µM [inhibitor, full curve]
COC(=O)c1ccc(N/C(C)=C/C(=O)c2ccc(C)o2)cc1	inactive
CN(C)c1c(N)c(=O)oc2ccccc12	inconclusive: 79.4 µM [inhibitor, single point]
Cc1ccc(C(=O)Nc2ncc(C)s2)s1	inactive
CCN(CC)c1ccc(NC(=O)c2cc(OC)cc(OC)c2)c(C)c1	active: 39.8 µM
Cc1ccc(N/N=C/c2c(C)c(C#N)c(=O)n(C)c2O)cc1C	active: 56.2 µM
CCCCOc1ccc(C(=O)NCC(=O)OC2CCOC2=O)cc1 (stereo not drawn)	inconclusive: 89.1 µM [inhibitor, single point]
COc1cc(/C=C2\SC(=S)N(C(Cc3ccccc3)C(=O)O)C2=O)ccc1O (stereo not drawn)	active: 35.5 µM
COc1ccc(F)cc1CN1CCN(C(=O)CCC(=O)Nc2nnc(C3CCCCC3)s2)CC1	inconclusive: 79.4 µM [inhibitor, partial curve]
COc1cc([N+](=O)[O-])ccc1NC(=O)N1CCC2(CC1)Nc1ccccc1-n1cccc12	inconclusive: 28.2 µM [inhibitor, full curve]
COc1ccc(-n2ccnc2CN2CCCC(CO)(Cc3cccc(OC)c3)C2)cc1 (stereo not drawn)	inconclusive: 39.8 µM [inhibitor, partial curve]
CN(CC(=O)Nc1ccccc1Cl)C(=O)COC(=O)c1ccc(Cl)nc1	inconclusive: 89.1 µM [inhibitor, single point]
COCCNC(=O)CNC(c1ccccc1)c1ccccc1	active: 56.2 µM
O=C(CN1CCN(c2ccccc2F)CC1)N1CCc2ccccc21	inactive
Cc1ccc(NC(=O)CSc2nc3ccc(Nc4nc(N5CCOCC5)nc(N5CCOCC5)n4)cc3s2)cc1	inactive
O=C1NN(c2ccc(F)cc2)C(=O)/C1=C/c1cccs1	inactive
COc1ccc(OC)c(C(C)NC(=S)NC2CCCCC2)c1 (stereo not drawn)	inconclusive: 39.8 µM [inhibitor, partial curve]
Cc1ccc(C)n1-c1nccc(-c2ccco2)n1	inconclusive: 79.4 µM [inhibitor, single point]
CCNC(=O)N1c2ccc(OC)cc2C(C)=CC1(C)C	inconclusive: 70.8 µM [inhibitor, single point]
N#C/C(=C\c1ccccc1)C(=O)Nc1cc(S(=O)(=O)N2CCOCC2)ccc1N1CCCC1	inactive
COc1ccc(C(=O)NC(=S)Nc2ccc(Cc3ccncc3)cc2)cc1	inconclusive: 31.6 µM [inhibitor, full curve]
O=C(CCCN1C(=O)/C(=C/c2ccccc2Cl)SC1=S)Nc1ccccn1	inconclusive: 12.6 µM [inhibitor, full curve]
COC(=O)c1ccccc1NC(=O)c1nn(C)c2c1COc1ccccc1-2	inconclusive: 89.1 µM [inhibitor, single point]

Structure (SMILES)	Potency
NNC(=O)c1csc(-c2ccc(C(F)(F)F)cc2Cl)n1	inconclusive: 3.55 µM [inhibitor, single point]
O=C(Nc1ncn[nH]1)c1ccc(Cl)cc1Cl	active: 50.1 µM
CN1CCN(Cc2nc(N)nc(Nc3ccc4c(c3)OCCO4)n2)CC1	active: 50.1 µM
O=C(O)C1CN(C(=O)c2cccc(Br)c2)C1	inactive
CCN1CCN(c2ncc3c(n2)CCN(Cc2cccc(F)c2F)C3)CC1	inconclusive: 50.1 µM [inhibitor, partial curve]
Cc1[nH]c2ccc(C(=O)Nc3ccncc3)cc2c1C	inconclusive: 70.8 µM [inhibitor, single point]
Cc1cccc(-c2nc3cc([N+](=O)[O-])ccc3o2)c1	inconclusive: 70.8 µM [inhibitor, single point]
CCOC(=O)c1ccc(-n2c(CN3CCC(O)CC3)nc3ccc([N+](=O)[O-])cc3c2=O)cc1	inconclusive: 70.8 µM [inhibitor, single point]
CN(C)CCCN(C(=O)c1cc(-c2cccs2)nc2ccccc12)c1nc2ccc(F)cc2s1	inconclusive: 6.31 µM [inhibitor, full curve]
C1CCN=C(Nc2nn[nH]n2)CC1	active: 79.4 µM
O=C(c1cccc(Br)c1)N1CCN(c2cnn(-c3ccccc3)c(=O)c2Cl)CC1	inactive
O=C(NN=C1CCCC1)c1ccccc1[N+](=O)[O-]	inactive
CC1CCCN(C(c2cccs2)c2nnnn2Cc2ccccc2)C1 (stereo not drawn)	inconclusive: 89.1 µM [inhibitor, single point]
COc1cccc(N2CCN(C(=O)c3oc4ccccc4c3NC(=O)Cc3ccc(OC)c(OC)c3)CC2)c1	inconclusive: 22.4 µM [inhibitor, full curve]
CCOc1ccccc1C=Nc1ccccc1C(=O)Nc1ccccc1	inactive
CC(OC(=O)c1ccc(S(=O)(=O)NCc2ccco2)cc1)C(=O)Nc1ccc(Cl)cn1 (stereo not drawn)	inconclusive: 50.1 µM [inhibitor, partial curve]
O=C(C1CCCN(S(=O)(=O)c2ccccc2)C1)N1CCN(c2ccc(F)cc2)CC1 (stereo not drawn)	inconclusive: 79.4 µM [inhibitor, single point]
Cc1cccc(CC(=O)NCCS(=O)(=O)N2CCN(c3cccc(Cl)c3)CC2)c1	inactive
Cc1ccc(S(=O)(=O)CC(=O)Nc2nc3c(C)cccc3s2)cc1	inactive
CC1Cc2ccccc2N1C(=O)CN1C(=O)NC(C)(CCc2ccccc2)C1=O (stereo not drawn)	inconclusive: 79.4 µM [inhibitor, single point]
O=C(CN1CCCC1)Nc1ccc(F)c(Cl)c1	inconclusive: 89.1 µM [inhibitor, single point]
Cc1cccc(C)c1NC(=O)Cn1c(=O)c2cccn2c2ccccc21	inconclusive: 89.1 µM [inhibitor, single point]
Cc1ccc(CNC(=O)C2CCC(CNS(=O)(=O)c3ccc(C)cc3)CC2)cc1 (stereo not drawn)	inactive
CC(/C=N/n1c(-c2ccco2)n[nH]c1=S)=C\c1ccco1	inconclusive: 79.4 µM [inhibitor, single point]
CCOCCCNc1nc(=S)[nH]c2cc(OC)c(OC)cc12	inconclusive: 79.4 µM [inhibitor, single point]

Structure (SMILES)	Potency
COC(=O)Cn1cnc2scc(-c3ccc(C)cc3)c2c1=O	inconclusive: 89.1 µM [inhibitor, single point]
COc1ccc(N(C)C(=O)c2ccc3nc(-c4ccccc4)c(-c4ccccc4)nc3c2)cc1	inconclusive: 39.8 µM [inhibitor, full curve, poor fit]
Cc1cccc(N2CCN(C(=O)NC3CCCCC3)CC2)c1C	inactive
C=CCc1cccc2cc(C(=O)Nc3ccccc3C(=O)O)c(=O)oc12	active: 50.1 µM
Cc1ccc(N(C)C(CNS(=O)(=O)c2ccccc2)c2ccccc2)cc1 (stereo not drawn)	inconclusive: 14.1 µM [inhibitor, full curve]
COc1ccccc1NC(=O)CSc1ccc(-c2ccccn2)nn1	active: 3.55 µM and active: 3.16 µM
O=C(c1ccccc1-n1cccn1)N1CCc2c([nH]c3ccccc23)C1c1ccccn1 (stereo not drawn)	inconclusive: 44.7 µM [inhibitor, partial curve]
Cc1cccc(N2CCN(C(=O)c3cccc(N4C(=O)C5C6C=CC(C6)C5C4=O)c3)CC2C)c1 (stereo not drawn)	inactive
COc1ccc(S(=O)(=O)N2CCC(N3CCN(c4ccccc4OC)CC3)CC2)cc1	active: 39.8 µM
Cc1cc(OC(C)C(=O)N2CCC(c3nc4ccccc4o3)CC2)ccc1Cl (stereo not drawn)	inactive
COc1ccc(C2C=C(c3ccc(F)cc3)NC(=S)N2)cc1OC (stereo not drawn)	inconclusive: 39.8 µM [inhibitor, partial curve]
Clc1cccc(-c2nc3ccccn3c2Nc2ccc3c(c2)OCCO3)c1	active: 11.2 µM
CC(C)C1N=C2c3ccccc3N=C(SCc3cc(=O)n4cc(Cl)ccc4n3)N2C1=O (stereo not drawn)	inactive
COc1ccc(C2=NN(C(N)=S)C(c3ccco3)C2)cc1 (stereo not drawn)	inconclusive: 44.7 µM [inhibitor, partial curve]
COc1cccc(OC(=O)CSc2nnc(-c3cccs3)o2)c1	inconclusive: 89.1 µM [inhibitor, single point]
Cc1c(Cl)cnc(NC(=O)COC(=O)c2cccc(S(=O)(=O)N3CCc4ccccc4C3)c2)c1Cl	inconclusive: 56.2 µM [inhibitor, partial curve]
C=CCN(CC=C)CCOc1ccccc1	active: 56.2 µM
Cc1ccccc1NC(=O)CNc1ccccc1N1CCCCC1	inconclusive: 39.8 µM [inhibitor, partial curve]
CCCCCCNC(=O)c1c[nH]c2ccc(S(=O)(=O)N(C)c3ccc(C(C)C)cc3)cc2c1=O	inactive
C#CCCCCCCC#CCN(C)C	inconclusive: 39.8 µM [inhibitor, single point]
CCOc1ccc(S(=O)(=O)N(CC)CC(=O)NC2CCS(=O)(=O)C2)cc1 (stereo not drawn)	inactive
CCC(c1nnnn1Cc1ccc(OC)cc1)N1CCN(c2ccc(OC)cc2)CC1 (stereo not drawn)	active: 35.5 µM
NS(=O)(=O)c1ccc(N=Nc2c(-c3ccccc3)[nH]n(-c3nc(-c4ccccc4)cs3)c2=O)cc1	inconclusive: 25.1 µM [inhibitor, full curve]
